# In article PMC4336329 (PLoS ONE, 2015):
# Screen size: about 310,000 compounds; about 14,000 (4.5%) showed an effect of 50% or more. The effect is printed as a negative number. This is one part of the list.
# Target: human ether-à-go-go-related gene (hERG) potassium channel (human, UniProt Q12809)
# Assay: primary screen, population patch clamp on CHO cells stably expressing hERG
# 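Note: peak tail current of the secondary pulse compared with the same well before compound.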
# Sequence of human ether-à-go-go-related gene (hERG) potassium channel (Q12809 whole entry, looked up): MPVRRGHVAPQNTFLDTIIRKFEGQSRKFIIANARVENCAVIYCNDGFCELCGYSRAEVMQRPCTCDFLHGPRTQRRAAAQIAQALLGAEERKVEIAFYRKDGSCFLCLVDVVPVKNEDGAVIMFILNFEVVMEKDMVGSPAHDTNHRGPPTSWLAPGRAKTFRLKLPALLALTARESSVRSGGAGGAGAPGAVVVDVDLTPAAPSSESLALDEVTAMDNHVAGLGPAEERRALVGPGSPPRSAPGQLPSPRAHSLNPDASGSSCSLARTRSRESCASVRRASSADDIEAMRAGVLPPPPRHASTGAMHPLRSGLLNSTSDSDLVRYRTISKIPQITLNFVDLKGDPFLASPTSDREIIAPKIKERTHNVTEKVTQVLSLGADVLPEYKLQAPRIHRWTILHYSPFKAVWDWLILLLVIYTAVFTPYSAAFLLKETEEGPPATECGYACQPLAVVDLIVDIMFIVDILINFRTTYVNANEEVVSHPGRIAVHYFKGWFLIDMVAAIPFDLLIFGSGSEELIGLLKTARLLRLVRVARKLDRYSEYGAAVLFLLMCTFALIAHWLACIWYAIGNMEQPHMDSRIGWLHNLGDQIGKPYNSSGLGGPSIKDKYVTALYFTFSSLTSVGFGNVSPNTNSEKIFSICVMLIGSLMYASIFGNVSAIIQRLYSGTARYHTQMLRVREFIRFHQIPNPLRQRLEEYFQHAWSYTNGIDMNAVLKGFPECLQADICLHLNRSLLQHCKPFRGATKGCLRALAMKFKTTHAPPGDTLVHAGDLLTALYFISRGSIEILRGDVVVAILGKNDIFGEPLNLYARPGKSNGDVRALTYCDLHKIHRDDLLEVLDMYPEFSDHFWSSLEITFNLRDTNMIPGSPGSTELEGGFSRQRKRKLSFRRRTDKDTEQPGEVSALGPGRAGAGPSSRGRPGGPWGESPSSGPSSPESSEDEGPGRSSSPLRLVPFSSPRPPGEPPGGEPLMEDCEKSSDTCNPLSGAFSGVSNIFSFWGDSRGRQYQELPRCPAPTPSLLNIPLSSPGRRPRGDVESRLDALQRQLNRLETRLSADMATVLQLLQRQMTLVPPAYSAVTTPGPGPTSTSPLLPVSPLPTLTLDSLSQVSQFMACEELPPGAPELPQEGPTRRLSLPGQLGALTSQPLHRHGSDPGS
row,Structure (SMILES),"hERG current change (%, negative = inhibition) at 10uM"
1,COc1ccc(OC)c(C2C(C#N)=C(N)Oc3c2c(C)nn3-c2ccc(C)cc2)c1 (stereo not shown),3.33%
2,Br.O=[N+]([O-])c1cccc(-c2csc(Nc3ccccc3)n2)c1,13.5%
3,COc1cc(NS(=O)(=O)c2ccc(C)cc2C)cc(OC)c1OC,-10.4%
4,CSc1nc(O)c(N=Nc2ccc(F)cc2F)c(=O)[nH]1,-4.9%
5,Cc1cc(OC(=O)c2c(Cl)cc(Cl)cc2Cl)nc(C)n1,-13.6%
6,Cc1nc(SCc2ccccc2)c2ccsc2n1,3.5%
7,CCC1COCCS(=O)(=O)N1Cc1ccc(F)cc1 (stereo not shown),-7.51%
8,COc1ccc(/C=C(\C#N)c2c[nH]c3ccccc23)cc1,9.93%
9,O=C(c1cc([N+](=O)[O-])ccc1N1CCN(S(=O)(=O)c2ccc(Cl)c(Cl)c2)CC1)N1CCOCC1,-52.4%
10,Cc1ccc(CN(C)C(=O)CC2C(=O)NCCN2CC2CCCCC2)cc1 (stereo not shown),0.467%
11,Cc1ccc(NC(=O)c2cnccn2)c(C)c1,13.3%
12,CCCNC(=O)CSc1nc(-c2cccs2)cc(C(F)(F)F)n1,-17%
13,CC(=O)Nc1ccc(S(=O)(=O)NNC(=O)c2cccc(Br)c2)cc1,15.9%
14,Cc1cc2c(ncn2C)c(NS(=O)(=O)c2cc(Cl)ccc2Cl)c1C,-14.4%
15,Cc1ccc(-n2nc(C)c3c2NC2=C(C(=O)CC(C)(C)C2)C3c2ccccc2OCC(=O)O)cc1 (stereo not shown),17.8%
16,CCc1ccc(OCC(=O)NNC(=O)c2cc3ccccc3o2)cc1,14%
17,CC1CCN(c2c(NCc3ccc(C(=O)N4CCc5ccccc54)cc3)c(=O)c2=O)CC1,0.15%
18,COc1ccc(N(CC(=O)NCCSC2CCCCC2)S(=O)(=O)c2ccccc2)cc1OC,-1.85%
19,O=C(Cc1ccccc1)n1nc(-c2ccccc2)nc1NCc1ccco1,-16.9%
20,O=C(O)CS(=O)CC(=O)Nc1cccc(C(F)(F)F)c1 (stereo not shown),7.09%
21,Cn1nc(C(=O)NCC2COc3ccccc3O2)c2ccccc2c1=O (stereo not shown),-29.1%
22,CCc1ccc([C@@H]2CC=C(C(=O)O)[C@H](c3ccccc3F)N2S(=O)(=O)c2ccc(C)cc2)cc1,11.1%

row,Structure (SMILES),"hERG current change (%, negative = inhibition) at 10uM"
1,COc1ccc2c(=O)c(-c3ccccc3)c(C)oc2c1,-11.9%
2,CC(C)C(=O)Nc1c2c(nn1-c1ccc([N+](=O)[O-])cc1)CS(=O)(=O)C2,11.6%
3,Clc1ncccc1-c1nnn(-c2ccccc2Br)n1,2.49%
4,O=C(COc1ccccc1)Nc1ccc(N2CCCCC2)cc1,10%
5,Cc1oc2ccccc2c1CC(=O)NCCCN(C)C,6.48%
6,O=C(NCc1ccco1)C1CC(=O)N(c2ccc(O)cc2)C1 (stereo not shown),-10.2%
7,Cc1ccc(-n2nnnc2SCC(=O)NC(=O)Nc2ccc3c(c2)OCCO3)cc1,27.1%
8,Cc1csc(NC(=O)CCc2nc3ccccc3s2)n1,-3.58%
9,CC(C)(C)c1nc(SCC(=O)Nc2nc3c(s2)CCCC3)c2ccccc2n1,12.7%
10,CCc1ccc2c(c1)C(c1ccncc1)=NNC(c1ccccc1)=N2,0.537%
11,CCOc1ccc2nc(SCC(=O)N3CCN(C(=O)c4ccco4)CC3)sc2c1,-66.2%
12,O=c1onc(-c2ccccc2)c2ccccc12,6.55%
13,COc1ccc(Br)c(C(=O)OCc2cc(=O)oc3cc(C)ccc23)c1,6.38%
14,COCc1c(C(=O)N/N=C\c2cccs2)nnn1-c1nonc1N,18.6%
15,O=C(O)CC(O)(CC(=O)O)C(=O)O,4.16%
16,Cc1ccc(NC(=O)[C@@]2(CC(=O)O)CC(/C=C/c3ccccc3)=NO2)c(C)c1,18.6%
17,CC(C)(C)c1cc(NCCCn2ccnc2)n2ncc(-c3ccc(Cl)cc3)c2n1,12.1%
18,C/C(=C\C(=O)c1ccc(Cl)s1)N(C)C,3.3%
19,CC(C)n1ncc2c(C(=O)O)cc(C3CC3)nc21,-4.71%
20,C=CCOC(=O)C1=C(C)OC(N)=C(C#N)C12C(=O)N(CN1CCOCC1)c1ccccc12 (stereo not shown),-1.58%
21,Cc1ccc(S(=O)(=O)CCC(=O)OCC(=O)N2c3ccccc3CC2C)cc1 (stereo not shown),13%
22,O=C(NCc1ccccc1Cl)C(=O)NCC1CCCN1S(=O)(=O)c1cccs1 (stereo not shown),-20%

row,Structure (SMILES),"hERG current change (%, negative = inhibition) at 10uM"
1,O=[N+]([O-])c1ccccc1S(=O)(=O)Oc1ccccc1/C=N/n1cnnc1,-16.9%
2,O=C(c1cccc(Oc2ccc([N+](=O)[O-])cc2)c1)N1CCOCC1,-34.3%
3,CCOCCN1CCN(c2c(CC)c(C)nc3cc(-c4cc(OC)cc(OC)c4)nn23)CC1,-72.4%
4,O=C(c1ccc(CS(=O)(=O)Cc2ccc(Cl)cc2)o1)N1CCCC1,-19%
5,O=C(O)CCC(=O)Nc1cccc(-c2nnc(-c3ccccc3)o2)c1,18.9%
6,Brc1ccccc1-c1nc(-c2ccccc2)no1,5.04%
7,O=C(CSc1cn[nH]n1)Nc1nc2ccccc2s1,1.49%
8,O=[N+]([O-])c1ccc(S(=O)(=O)Nc2ncccn2)cc1,20.3%
9,CCN1CCN(C(c2cccs2)C(C)NC(=O)c2ccccc2OC)CC1 (stereo not shown),-28.9%
10,COc1ccc(C(=O)N/N=C/c2c(C)nn(-c3ccccc3)c2OC)cc1,-10%
11,Cc1ccc(OC(=S)Nc2ccc(F)cc2)cc1,7.01%
12,Cc1cc(NC(=O)CSc2nnc(-c3cccc(F)c3)n2N)no1,27.6%
13,CCN(CC)CCSc1nnc2c3cc(F)ccc3n(Cc3ccccc3)c2n1,-77%
14,COC(=O)C1CCN(C(=O)c2ccc(Cl)c(S(=O)(=O)NCc3cccnc3)c2)CC1,13%
15,CCn1c(SCC(=O)N2CCCC2)nc2ccccc21,13.6%
16,COc1ccc(-c2cc(=O)oc3c(C)c(OC(C)C(=O)N4C[C@H]5C[C@@H](C4)c4cccc(=O)n4C5)ccc23)cc1 (stereo partly shown),-47.2%
17,Cc1cccc2c(C(=O)N3CCN(C(=O)c4ccco4)CC3)cc(-c3cccc(Br)c3)nc12,4.09%
18,CC(Sc1cccc[n+]1[O-])C(=O)Nc1ccc(Oc2ccccc2)cc1 (stereo not shown),-9.83%
19,Cc1ccc(N=Nc2[nH]c3ccccc3c2O)cc1,19.7%
20,CCCSc1nnc(NC(=O)Cc2ccc(OC)c(OC)c2)s1,4.66%
21,CCN(C(=O)COC(=O)c1nc2nc(C)cc(C)n2n1)C1CCS(=O)(=O)C1 (stereo not shown),-18.2%
22,CCN(C(=O)COC(=O)c1ccccc1SCC(=O)N1CCCC1)C1CCS(=O)(=O)C1 (stereo not shown),9.06%

row,Structure (SMILES),"hERG current change (%, negative = inhibition) at 10uM"
1,CCc1ccc(OCC(=O)NC(=S)Nc2ccc(C(C)=O)cc2)c(Br)c1,-2.72%
2,CC1(C)COC(c2cccn2Cc2ccc(F)cc2Cl)=N1,-0.439%
3,COC(=O)C1CC23C=CCN4CCC5(c6ccccc6NC15C2C)C43 (stereo not shown),8.9%
4,Cc1ccc2cccc(NC(=S)NC(=O)c3ccccc3)c2n1,6.97%
5,Cc1cc(NC(=O)CN2CCCCCCC2)no1.O=C(O)C(=O)O,4.84%
6,CCOC(=O)C1(CCCc2ccccc2)CCN(C(=O)CCC2=NNC(=O)CC2)CC1,11.8%
7,COC(=O)C1=CN(c2ccc(OC)cc2)C=C(C(=O)OC)C1c1cc(OC)c(OC)cc1OC,-6.3%
8,CN(C)c1nc(-c2ccccn2)nnc1-c1ccccc1,-0.724%
9,COc1ccccc1C1NC(=O)CCC1[N+](=O)[O-] (stereo not shown),17.6%
10,CCc1ccccc1NC(=O)N1CCC(NC(=O)C(Cc2ccccc2)NC(C)=O)CC1 (stereo not shown),13.9%
11,CCOC(=O)N1CCC(N(C(=O)Nc2ccc(Cl)c(Cl)c2)C(C)CC)CC1 (stereo not shown),6.19%
12,Brc1ccc2nc(N3CCN(c4ccccc4)CC3)sc2c1,31.8%
13,COc1ccc(C(=O)NC2CCN(CC(=O)NC3CCCCC3)CC2)cc1,-17.3%
14,Cc1csc(SC(C)C(=O)NCC(=O)Nc2ccc(F)c(F)c2F)n1 (stereo not shown),21.8%
15,CCOC(=O)CSc1nnc(CSc2nc3sc4c(c3c(=O)[nH]2)CCCC4)n1-c1ccccc1,-6.62%
16,CC1(C)Cc2cccc(OCC(=O)Nc3ccccc3F)c2O1,1.74%
17,Nc1nnnn1/N=C/c1cccs1,3.28%
18,CCOC(=O)CNC(=O)Cn1cnc2c(cnn2-c2ccc(C)cc2)c1=O,-1.61%
19,CC(c1ccco1)N(C(=O)c1ccc(C(F)(F)F)cc1)c1ccccn1 (stereo not shown),8.13%
20,Clc1cncc(Cl)c1N/N=C/c1ccccc1,-1.37%
21,O=C(Nc1cccc(-c2cccc(Cl)c2)c1)C1CCN(Cc2ccccn2)CC1,-77.8%
22,c1ccc(-c2nc(N3CCN(c4ccccc4)CC3)nc(-n3ccnc3)n2)cc1,-2.66%
